From PubChem BioAssay AID488969 (Vanderbilt High Throughput Screening Facility, 2010)
The full ranking holds about 110,000 compounds; the median of “z-score” is about -0.1, and the highest 2% start at about 2. The list shows a part of the results. Active and inactive are the calls of the source.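 Rule for the calls: active = z-score in the third read window above 3 or below -3; inactive = the rest.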

These molecules were tested against Metabotropic glutamate receptor 8 (Rattus norvegicus) (UniProt P70579) (assay: mGluR8 Gi/Go-coupled signaling modulation – cell-based, rat, thallium flux, HTS, primary screen (AID 488969)). Settings: HEK293 rat mGluR8, GIRK (G protein-gated inwardly rectifying potassium channel) thallium flux, FluoZin2; at 10 µM; stronger effect = higher value; submaximal glutamate (EC20) added with thallium.
Chain of UniProt P70579 (P70579 whole entry, looked up): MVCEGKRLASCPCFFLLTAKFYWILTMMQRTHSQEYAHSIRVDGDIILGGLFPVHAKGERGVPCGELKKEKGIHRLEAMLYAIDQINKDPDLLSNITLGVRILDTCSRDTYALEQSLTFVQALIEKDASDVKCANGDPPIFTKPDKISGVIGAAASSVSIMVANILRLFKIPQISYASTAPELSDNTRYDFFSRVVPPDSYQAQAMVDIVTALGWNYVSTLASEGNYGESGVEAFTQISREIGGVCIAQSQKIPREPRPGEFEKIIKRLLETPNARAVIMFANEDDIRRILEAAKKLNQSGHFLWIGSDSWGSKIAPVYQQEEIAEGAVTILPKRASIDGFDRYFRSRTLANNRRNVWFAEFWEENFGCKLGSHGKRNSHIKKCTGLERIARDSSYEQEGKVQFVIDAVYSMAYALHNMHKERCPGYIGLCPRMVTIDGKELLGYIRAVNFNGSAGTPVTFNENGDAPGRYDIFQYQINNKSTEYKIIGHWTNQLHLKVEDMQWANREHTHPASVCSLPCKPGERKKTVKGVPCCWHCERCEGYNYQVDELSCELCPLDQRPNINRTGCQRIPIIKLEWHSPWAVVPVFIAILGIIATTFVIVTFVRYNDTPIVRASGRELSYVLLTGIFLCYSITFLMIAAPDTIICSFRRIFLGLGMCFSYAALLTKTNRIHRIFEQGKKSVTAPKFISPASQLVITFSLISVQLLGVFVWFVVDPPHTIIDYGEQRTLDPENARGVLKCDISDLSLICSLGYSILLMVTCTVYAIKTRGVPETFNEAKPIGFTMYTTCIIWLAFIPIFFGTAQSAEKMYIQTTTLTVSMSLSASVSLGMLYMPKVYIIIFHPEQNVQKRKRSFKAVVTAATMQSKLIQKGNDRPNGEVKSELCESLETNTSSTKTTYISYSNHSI
Molecule CCC(C)C(NC(=O)C1CCC(C)CC1)C(=O)NC(C(=O)OC)C(C)C (centres undefined) has a z-score of -0.134.
In the case of COC(=O)CNS(=O)(=O)c1ccc(C)cc1, the z-score is reported as 0.036.
CC(=O)c1ccc(NC(=O)CN2C(=O)/C(=C/C=C/c3ccccc3)SC2=S)cc1 showed a z-score of -0.117.
COc1cc(NC(=O)c2ccc(C)cc2)c(OC)cc1NC(=O)CN1CCCCC1 showed a z-score of 2.37.
Work on CCOC(=O)Nc1ccc2c(c1)N(C(=O)CCN1CCOCC1)c1ccccc1S2 yielded a z-score of 0.00279.
COc1ccc(S(=O)(=O)N2CC3CCCN3c3ccc(C(F)(F)F)cc32)cc1 (centres undefined) gave a z-score of 0.596.
COc1ccc(S(=O)(=O)Nc2ccc(O)c(Sc3nc4ccccc4s3)c2)cc1 showed a z-score of -0.313.
COC(=O)C1CCN(C(=O)c2ccccc2NC(C)=O)CC1 showed a z-score of 0.648.
Cc1csc2nc(CNS(=O)(=O)c3ccc4c(c3)OCCO4)cn12 showed a z-score of -0.405.
Work on CCCc1[nH]n(-c2nc3ccccc3s2)c(=O)c1C=NCC1CCCO1 (centres undefined) yielded a z-score of -0.373.
Cc1c(Cl)c(C(=O)NNC(=S)Nc2ccccc2)nn1C gave a z-score of 0.0403.
Work on CCOc1ccc(N(CC(=O)Nc2cccc(OC)c2)S(=O)(=O)c2c(C)noc2C)cc1 yielded a z-score of 0.0981.
For CCn1c(SC(C)C)nnc1C1CCN(S(=O)(=O)c2ccc(OC)cc2)CC1, the z-score was -0.256.
With O=C(CSc1nnc(C2CC2)n1Cc1ccccc1)c1ccc(S(=O)(=O)N2CCOCC2)cc1 the z-score was 0.166.
For Cc1ccc(/C=N/NC(=O)c2cccc([N+](=O)[O-])c2)o1, the z-score was -0.121.
With COc1ccccc1C(O)(C(=O)NN(C)c1ccccc1)c1ccccc1OC the z-score was -0.467.
For CCOc1ccccc1NC(=O)CCCN1C(=S)NC(C)(C)CC1C (centres undefined), the z-score was -0.565.
With COCCCN(C(=O)Nc1ccccc1)C(C)c1ccncc1 (centres undefined) the z-score was -0.179.
O=C(O)c1cccc(NC(=O)c2cn(-c3ccccc3)nc2-c2cc3ccccc3o2)c1 was tested, and the z-score was -0.504.
Work on CCOc1c(Br)cc(C2NS(=O)(=O)N=C3CCCCCN32)cc1OC (centres undefined) yielded a z-score of 0.364.
Work on Cn1c(CNc2ccc(Cl)cc2)nc2ccccc21 yielded a z-score of -0.327.
With CC1(C)CC(=O)c2cnn(-c3nc4ccccc4[nH]3)c2C1 the z-score was 0.463.
For O=C(/C=C/c1ccc(S(=O)(=O)NCc2ccco2)cc1)NCc1cccc(Cl)c1, the z-score was -0.451.
Molecule Nc1c(O)ccc2c1C(=O)c1ccccc1C2=O has a z-score of -0.0265.
With O=C(Nc1c(Cl)cc(Cl)cc1C(=O)NCC1CCCO1)c1ccco1 (centres undefined) the z-score was 0.151.
Work on CC1(C)C(=O)Nc2ccccc2N1C(=O)COC(=O)c1ccc(Cl)c(S(=O)(=O)NCc2ccccc2)c1 yielded a z-score of -0.107.
With Cc1[nH]n(-c2cccc(Cl)c2)c(=O)c1C=NC12CN3CN(CN(C3)C1)C2 the z-score was -0.312.
In the case of Cn1c(SCC(=O)c2ccccc2)nnc1-c1cccc(N)c1, the z-score is reported as -0.165.
In the case of CCC(C)(C)n1nnnc1C(c1ccc(C)cc1)N1CCC(C)CC1 (centres undefined), the z-score is reported as 0.341.
S=C(NCCCN1CCOCC1)Nc1ccc(Cl)cc1 was tested, and the z-score was -0.154.
For Cc1ccccc1C(=O)NNC(=S)NC(=O)c1ccccc1, the z-score was active: 3.78.
Molecule c1ccc2c(c1)oc1c(NCC3CCCO3)ncnc12 (centres undefined) has a z-score of 0.655.
Work on CCN(C(=O)CN(C)Cc1cccc(Cl)c1Cl)c1c(N)n(Cc2ccccc2)c(=O)[nH]c1=O yielded a z-score of -0.301.
For CN(C(=O)c1ccccn1)c1nnc(-c2ccccn2)s1, the z-score was 2.29.
Work on CCn1cc([N+](=O)[O-])c(C(=O)Nc2c(C)nn(Cc3c(F)c(F)c(F)c(F)c3F)c2C)n1 yielded a z-score of 0.0235.
Molecule CCOC(=O)c1ccc(Nc2nc(=O)c3cccnc3s2)cc1 has a z-score of -0.132.
With COCCCNC(=O)Cn1nnc(-c2ccccc2NC(=O)c2ccccc2F)n1 the z-score was -0.165.
Molecule COCCNC(=O)c1cc2c3ccccc3n(C)c2s1 has a z-score of -0.192.
In the case of O=S(=O)(O)c1nc2ccccc2n1Cc1ccccc1, the z-score is reported as -0.221.
For CCOC(=O)c1nnc(-c2cccs2)nc1Oc1ccccc1C(=O)OC, the z-score was -0.554.
Molecule Cc1ccc(NC(=O)Cc2nnc(SCC(=O)c3ccc(Br)cc3)n2C)cc1 has a z-score of 0.0995.
Work on S=C(NCc1cccnc1)Nc1cccc(Cl)c1 yielded a z-score of 0.237.
In the case of Cc1ccc(-c2nnc(SCc3ccc(C#N)cc3)n2Cc2ccco2)cc1, the z-score is reported as 0.0444.
For COC(=O)c1c(NC(=S)NC(=O)c2ccco2)sc2c1CCCC2, the z-score was active: 3.53.
In the case of CCCc1c(CC)c(=N)c2ccccc2n1C, the z-score is reported as 0.0798.
For COc1nc(NC2CCCCC2)nc(N2CCCCCC2)n1, the z-score was 0.939.
Molecule Cc1ccc(-c2cc(-c3ccccc3)nc(Cl)n2)cc1 has a z-score of 0.178.
Molecule Nc1nc(N2C(=O)C3CC=CCC3C2=O)nn1-c1ccccc1 (centres undefined) has a z-score of -0.0994.
CC(C(=O)NCC1CCCCC1)N1CCN(S(=O)(=O)/C=C/c2ccccc2)CC1 (centres undefined) was tested, and the z-score was -0.564.
For C=CCNC(=O)Nc1ccc2oc(C)nc2c1, the z-score was -0.283.
For O=C(NCc1cccnc1)c1ccc(COc2ccc3c(c2)CCC3)o1, the z-score was 1.12.
Cc1ccc2cc(CCNC(=O)c3c(-c4ccccc4Cl)noc3C)c(=O)[nH]c2c1 showed a z-score of -0.412.
For CCOC(=O)c1cnc2c(N=Nc3cccc(Cl)c3)c(N)nn2c1N, the z-score was 0.153.
For COc1ccccc1CN(Cc1cc2c(C)ccc(C)c2[nH]c1=O)Cc1nnnn1Cc1ccco1, the z-score was 0.414.
Work on CCNC(=O)c1oc2c(c1C)C(=O)CC(C)(C)C2 yielded a z-score of -0.278.
O=C(Nc1ncnc2sc3c(c12)CCC3)c1ccco1 was tested, and the z-score was -0.814.
Work on O=c1c2ccccc2nc(/C=C/c2ccccc2)n1CCc1ccccc1 yielded a z-score of -0.262.
CSCCC(NC(N)=O)C(=O)NCC1CCCCC1 (centres undefined) showed a z-score of -0.0211.
Work on O=C(c1ccccc1)N1CCC(c2nc(-c3ccc(S(=O)(=O)NCC4CCCO4)cc3)no2)CC1 (centres undefined) yielded a z-score of -0.347.
CCOC(=O)CNC(=O)c1cccs1 was tested, and the z-score was 1.18.
COc1ccc(-c2nnc(NC(=O)CSc3ccc(Cl)cc3)s2)cc1OC gave a z-score of -0.282.
Work on Cc1ccc(N(C(=O)NC2CCCCC2)C2=NCCCCC2)cc1 yielded a z-score of 0.548.
CCOC(=O)CNC(=O)CSc1nc2sc(C)c(C)c2c(=O)n1C showed a z-score of -0.726.
Work on CCCC(c1nnnn1CCc1ccccc1)N1CCC(C(N)=O)CC1 (centres undefined) yielded a z-score of -0.528.
O=C(OCc1cn(-c2ccc(Cl)c(Cl)c2)nn1)c1ccccc1Cl gave a z-score of -0.78.
COc1ccccc1CNS(=O)(=O)c1c(C)[nH]c(=O)[nH]c1=O showed a z-score of 0.0871.
Work on COCCNC(=O)Nc1ccc2nc(C)sc2c1 yielded a z-score of -0.0702.
O=S(=O)(N[C@@H]1C[C@H]2CC[C@@H]1C2)c1cccs1 gave a z-score of -0.265.
For Cc1ccc(C2=NN(Cc3nnc(-c4ccccc4)o3)C(=O)SC2)cc1, the z-score was -0.258.
For Oc1ccc(-c2nc3cnccn3c2Nc2ccc3c(c2)OCCO3)cc1, the z-score was -0.974.
CC(Oc1ccc(Cl)cc1Cl)C(=O)Nc1ccc2oc(-c3ccncc3)nc2c1 (centres undefined) was tested, and the z-score was -0.432.
For Cc1cccc(-n2ncc3c(NCc4ccc5c(c4)OCO5)ncnc32)c1, the z-score was -0.121.
For CC(Sc1nc2ccccc2s1)C(=O)Nc1nnc(C(C)C)s1 (centres undefined), the z-score was 0.166.
For O=C(Nc1ccon1)c1sc2cc(F)ccc2c1Cl, the z-score was 0.27.
Cc1cccc(N2C(=O)C(Cl)=C(Nc3c(C)n(C)n(-c4ccccc4)c3=O)C2=O)c1C gave a z-score of -0.132.
Work on O=C(O)c1ccccc1C(=O)OCc1ccccc1 yielded a z-score of -0.111.
Work on Cc1cccc(N2CCN(C(=O)c3ccc4ncsc4c3)CC2)c1C yielded a z-score of -0.0701.
With Cc1cc(OCC(=O)O/N=C(\N)Cc2cccs2)ccc1Br the z-score was -0.29.
With NC(=S)N/N=C/c1ccccc1 the z-score was 0.103.
CCCCn1c(SCC(=O)NCCOC)nc2ccc(N3CCOCC3)cc2c1=O showed a z-score of 1.19.
CCOC(=O)N1CCN(C(=O)c2ccc3c(=O)n(Cc4ccccc4OC)c(=S)[nH]c3c2)CC1 gave a z-score of -0.36.
Work on CCOc1ccc(N2C(=O)c3cccnc3C2Nc2ccc(Cl)cc2)cc1 (centres undefined) yielded a z-score of -1.34.
For O=c1c2ccccc2nc(/C=C/c2ccc([N+](=O)[O-])cc2)n1CCCO, the z-score was -0.134.
In the case of O=C(NCc1cccnc1)C1CCCN(S(=O)(=O)c2ccccc2)C1 (centres undefined), the z-score is reported as -0.0962.
Work on Cc1cccc(CC(Cc2nc3ccccc3[nH]2)c2nc3ccccc3[nH]2)c1 (centres undefined) yielded a z-score of -0.798.
CC(C)CN1C(=O)C(=O)N(CC(=O)NCc2ccc3c(c2)OCO3)C1=O showed a z-score of 0.435.
Molecule CC(=O)c1c(N2CCC(C(N)=O)CC2)nc(=S)n(-c2ccccc2)c1C has a z-score of 0.608.
Fc1ccc(CNc2nc(-c3ccco3)cc(C(F)(F)F)n2)cc1 was tested, and the z-score was 0.667.
For O=C(CSc1c2c(nc3ccc(Cl)cc13)CCCC2)NCc1ccco1, the z-score was -0.409.
With COc1ccc(CCNC(=O)CSc2ccc(-c3ccccc3)nn2)cc1OC the z-score was -0.204.
Molecule COc1ccccc1N1CCN(C(=O)c2cc(-c3ccco3)on2)CC1 has a z-score of -0.34.
Molecule Cc1cc(C(=O)NCC(=O)OC(C(=O)Nc2cc(C(F)(F)F)ccc2Cl)c2ccccc2)ccc1[N+](=O)[O-] (centres undefined) has a z-score of -0.197.
For O=S(=O)(c1ccc(F)cc1)n1ccc(-c2cccc(OCc3c(F)cccc3Cl)c2)n1, the z-score was -0.0878.
Work on Cn1c(SCC(=O)N2CCCc3ccccc32)nc2cccnc21 yielded a z-score of 0.176.
For CC(=O)NCCc1ccc(S(=O)(=O)NC2OC(=O)c3ccccc32)cc1 (centres undefined), the z-score was -0.106.
Molecule O=c1c2ccccc2nc(SCc2nc3ccccc3s2)n1Cc1ccco1 has a z-score of -0.0748.
CNC(=O)CN(C1CCCCC1)S(=O)(=O)c1ccc(F)cc1 gave a z-score of -0.154.
O=C(CCn1c(=S)[nH]c2ccccc2c1=O)N1CCOCC1 gave a z-score of 0.695.
O=C(CNc1cccc(C(F)(F)F)c1)N/N=C/C1CCCCC1 was tested, and the z-score was 0.0428.
O=C(CSc1nc2ccccc2c(=O)n1-c1ccccc1F)Nc1ccc2c(c1)CCC2 showed a z-score of -0.694.
Work on O=C(CN1CCN(c2ccc(Cl)cc2)CC1)Nc1ccc(F)cc1 yielded a z-score of -0.454.
Work on O=C(CN1CCN(c2nc(-c3ccccc3)cs2)CC1)Nc1ccc2c(c1)OCO2 yielded a z-score of -0.333.
Molecule O=C(COC(=O)c1ccccn1)NCc1ccccc1 has a z-score of 0.0411.
With CC(C)Cn1c(SCC(=O)N2CCN(S(=O)(=O)c3ccccc3)CC2)nc2ccccc21 the z-score was -1.15.
In the case of O=C(OCC(=O)C12CC3CC(CC(C3)C1)C2)c1cccnc1Cl, the z-score is reported as -0.186.
Cc1nnc(Sc2nc3c(c(=O)n(C)c(=O)n3C)n2Cc2ccccc2Cl)s1 gave a z-score of 0.33.
For COc1ccccc1/C=N/NC(=O)C(C)Cn1cnc2ccccc21 (centres undefined), the z-score was -0.733.
Work on Cc1c(C2(c3c(C)n(C)n(-c4ccccc4)c3=O)C(=O)Nc3ccc(F)cc32)c(=O)n(-c2ccccc2)n1C yielded a z-score of -0.0683.
For COc1ccc(CNC(=S)Nc2cc(C)ccc2C)cc1, the z-score was 0.143.
